# Hit rate of the full screen: of about 310,000 compounds, about 11,000 (3.5%) were called active. The inconclusive results got no clear call from the source; some entries with a clear call stand among them for comparison. Calls come from the whole dose curve; as a rule, active = well fitted inhibition curve with a large enough effect; inconclusive = small, poorly fitted or top-dose-only effect, or effect the other way; inactive = flat fitted curve, though single readings scatter. No potency is given beside an inconclusive call; the fits are too rough.
# Assay: VP16 counterscreen qHTS for inhibitors of ROR gamma transcriptional activity;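 note: Gal4-VP16 expression switched on by copper sulfate through the metallothionein promoter; nearly all actives have a fitted effect of over 50% in size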
# Conditions: Drosophila S2 Gal4-VP16 UAS-luciferase, luminescence, 20 h; series mostly up to 53.6 µM
# Potency is the fitted concentration of half-maximal effect; tags give direction and shape of the fitted curve.
row,Structure (SMILES),Potency
1,N#CC(=C1N=c2ccccc2=N1)c1c(O)[nH]c2ccccc12,"inconclusive [inhibitor, full curve]"
2,O=C(CN1C(=O)C(=O)N(Cc2ccccc2)C1=O)Nc1cc(Cl)cc(Cl)c1,"inconclusive [inhibitor, single point]"
3,Cc1cccc(NC(=S)NCc2ccc3[nH]c4c(c3c2)CCCC4)c1,active: 7.08 µM
4,COc1ccc(C(N)=S)c(OC)c1,"inconclusive [inhibitor, single point]"
5,O=C(c1ccc2c(=O)n(C3CCCC3)c(=S)[nH]c2c1)N1CCCCCC1,active: 1 µM
6,Cc1ccc2c(c1)N(CC(=O)NCCCN1CCOCC1)C(=O)c1cccnc1O2,inactive
7,Cc1ccc(NC(=S)NC(=O)C2CCC2)cc1C,active: 2.82 µM
8,CC(=O)N1CCN(c2ccc(NC(=S)NC(=O)COc3ccc(C(C)(C)C)cc3)cc2)CC1,"inconclusive [inhibitor, full curve, poor fit]"
9,N/C(=N\OC(=O)c1ccc([N+](=O)[O-])cc1Cl)c1ccccn1,active: 11.2 µM
10,C=C(C)COc1ccc(-c2nc(N)ncc2-c2ccc(OC)cc2)c(O)c1,"inconclusive [inhibitor, single point]"
11,CC1=NN(C(N)=S)C(=O)C1N=Nc1c(C)cc(C)cc1C (stereo unspecified),active: 1.78 µM
12,Cc1ccc(S(=O)(=O)N2CCN(C(=O)C3CCCC3)CC2)cc1C,inactive
13,Cc1cc(NCc2ccccn2)n2ncc(-c3ccc(Cl)cc3)c2n1,active: 0.631 µM
14,Cc1ccc(/C=C/c2nnc(-c3cccs3)o2)cc1,"inconclusive [inhibitor, full curve]"
15,CN1C(=O)C2(C(C#N)=C(N)Oc3n[nH]c(-c4ccc(Cl)cc4)c32)c2ccccc21 (stereo unspecified),"inconclusive [inhibitor, partial curve]"
16,CCCCN(C(=O)CSc1nnc(-c2ccc(OC)cc2)n1C(C)C)c1c(N)n(Cc2ccccc2)c(=O)[nH]c1=O,"inconclusive [inhibitor, single point]"
17,S=C1NC2=C(CCCC2)C2(CCCCC2)N1,active: 1.78 µM
18,Cc1ccc(S(=O)(=O)CC#CCOC(=O)c2ccc([N+](=O)[O-])cc2)cc1,"inconclusive [inhibitor, single point]"
19,COc1ccc(-c2cc(C(=O)N3CCN(c4ccccc4)CC3)no2)cc1,inactive
20,NC(=O)CSc1nnc(-c2ccc(S(=O)(=O)N3CCCC3)cc2)n1Cc1ccco1,inactive
21,CCc1nnc(NS(=O)(=O)c2ccc(NC(=O)c3cc(Cl)ccc3OC)cc2)s1,inactive
22,CCCc1cc(-c2nc(N)ncc2-c2ccc3c(c2)OCCCO3)c(O)cc1OC,"inconclusive [inhibitor, single point]"
23,Cc1cc(/C=C2/SC(=S)N(c3ccc([N+](=O)[O-])cc3)C2=O)c(C)n1-c1cccnc1,active: 0.891 µM

row,Structure (SMILES),Potency
1,COc1cc2ccccc2cc1C(=O)NC(=S)Nc1ccc(C(=O)O)cc1,inactive
2,O=c1cc(NCCc2ccccc2)c2ccccc2o1,inactive
3,Cc1ccc(-c2cnc3ccccc3n2)cc1C,"inconclusive [inhibitor, single point]"
4,CCOC(=O)COc1ccc2ccccc2c1/C=C/[N+](=O)[O-],active: 6.31 µM
5,Cc1ccnc(NC(=O)Cc2ccc(-c3ccccc3)cc2)c1,"inconclusive [inhibitor, single point]"
6,CCCCNC(=S)N/N=C1\C(=O)c2cccc3cccc1c23,"inconclusive [inhibitor, full curve, poor fit]"
7,CCOC(=O)N1N=C(c2ccc(OC)cc2)CC1(O)C(F)(F)F (stereo unspecified),"inconclusive [inhibitor, single point]"
8,COc1ccc(NC(=O)COC(=O)c2cc(OC)c(OC)cc2NC(=O)c2ccco2)cc1OC,"inconclusive [inhibitor, partial curve]"
9,CCCCCCCCCCCCCCCCOC[C@H](COP(=O)([O-])OCC[N+](C)(C)C)OC(=O)CCCCCCCC(=O)O,"inconclusive [inhibitor, single point]"
10,O=S(=O)(Nc1ccc(O)c(NS(=O)(=O)c2ccccc2)c1)c1ccccc1,"inconclusive [inhibitor, single point]"
11,C/C(=N\NC(=O)c1ccccc1[N+](=O)[O-])c1c(O)cc(C)oc1=O,active: 6.31 µM
12,CCOc1ccc(NC(=O)c2cnsn2)cc1,"inconclusive [inhibitor, partial curve]"
13,CSCCC1NC(=O)N(CC(=O)Nc2ccc(-c3ccccc3)cc2)C1=O (stereo unspecified),"inconclusive [activator, partial curve, poor fit]"
14,FC(F)(F)c1cccc(NC(=S)NNC(=S)NCc2ccccc2)c1,"inconclusive [inhibitor, single point]"
15,N#Cc1c(N)n(CCOC(=O)c2ccc(Cl)cc2)c2nc3ccccc3nc12,"inconclusive [inhibitor, single point]"
16,C=CCNC(=S)Nc1sc2c(c1C(N)=O)CCCC2,"inconclusive [inhibitor, single point]"
17,Cc1cc(C)nc(CCNC(=O)c2cc(COc3ccccc3)on2)n1,"inconclusive [activator, single point]"
18,O=C(CCC(=O)Nc1ccc(Br)cc1)N/N=C/c1ccccc1O,"inconclusive [inhibitor, single point]"
19,C=CCN1C(=O)NC(c2ccccc2)(C(F)(F)F)S/C1=C(\C#N)c1nnc(N2CCOCC2)n1-c1ccccc1 (stereo unspecified),active: 12.6 µM
20,Clc1ccccc1/C=N/Nc1cc(N2CCOCC2)ncn1,"inconclusive [activator, partial curve, poor fit]"
21,COc1ccc2nc(C)cc(SCC(=O)NNC(=O)COc3ccccc3)c2c1,inactive
22,CCc1ccccc1NC1c2ccccc2C(=O)N1c1cccnc1 (stereo unspecified),inactive
23,O=C(Cc1cccs1)N/N=C/C(Br)=C/c1ccccc1,"inconclusive [inhibitor, single point]"
